Data published in PubChem BioAssay AID1460 (National Center for Advancing Translational Sciences (NCATS), 2008).
Out of some 270,000 compounds screened, about 5,800 (2.1%) were called active. The shares of active, inactive and inconclusive entries below differ from those in the screen. Calls follow the shape of the dose curve; as a rule, active = well fitted inhibition curve with a large enough effect; inconclusive = small, poorly fitted or top-dose-only effect; inactive = flat fitted curve, though single readings scatter. Where the call is inconclusive, the potency comes from a doubtful curve fit.

Each compound was assayed against Microtubule-associated protein tau (Homo sapiens) (UniProt P10636) (assay: qHTS for Inhibitors of Tau Fibril Formation, Thioflavin T Binding). Details: recombinant tau K18 P301L, heparin-induced fibrillization, ThT fluorescence; series mostly up to 57.4 µM; activity, negative = inhibition: at the top concentration.
How it was run: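 ThT emission at 510 nm, taken 1 hr after adding 30 uM dye, quantifies aggregates formed when 20 uM heparin acts on human tau K18 P301L for 6 hr at 37 C.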
% is scaled to controls: 0 for no effect and ±100 for the full control effect; potency is read from the fitted curve at half-maximal effect; tags tell the direction and shape of the fitted curve.
Also: nearly all actives have a fitted effect of over 55% in size.

UniProt P10636, sequence (P10636 whole entry, looked up): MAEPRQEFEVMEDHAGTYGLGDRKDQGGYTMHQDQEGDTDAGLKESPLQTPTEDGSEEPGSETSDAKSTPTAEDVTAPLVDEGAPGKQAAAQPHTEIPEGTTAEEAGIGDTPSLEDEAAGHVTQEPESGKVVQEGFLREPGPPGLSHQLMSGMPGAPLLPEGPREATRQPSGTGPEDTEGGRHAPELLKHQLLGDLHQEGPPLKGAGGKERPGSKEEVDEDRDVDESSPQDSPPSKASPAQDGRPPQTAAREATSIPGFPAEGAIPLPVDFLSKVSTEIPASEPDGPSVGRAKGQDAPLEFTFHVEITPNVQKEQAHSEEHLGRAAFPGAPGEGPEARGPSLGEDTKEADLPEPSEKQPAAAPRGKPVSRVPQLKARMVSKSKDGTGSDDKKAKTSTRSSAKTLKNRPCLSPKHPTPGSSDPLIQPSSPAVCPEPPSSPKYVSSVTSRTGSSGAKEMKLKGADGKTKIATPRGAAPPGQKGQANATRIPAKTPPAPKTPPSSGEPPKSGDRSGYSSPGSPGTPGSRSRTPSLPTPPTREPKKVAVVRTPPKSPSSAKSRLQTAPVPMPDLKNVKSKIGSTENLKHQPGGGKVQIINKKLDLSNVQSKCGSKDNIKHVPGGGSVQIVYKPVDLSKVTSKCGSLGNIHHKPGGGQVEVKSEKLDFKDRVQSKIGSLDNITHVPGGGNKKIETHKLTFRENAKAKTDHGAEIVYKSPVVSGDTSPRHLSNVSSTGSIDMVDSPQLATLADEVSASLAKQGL

SMILES | activity, negative = inhibition | Potency
COC(=O)[C@@H]1C[C@@H]2CC[C@@H](O)C[C@@H]2N1Cc1ccc(C)s1 | inactive: -9.86% | –
COCCNC(=O)CCCn1c(=O)[nH]c2ccsc2c1=O | inactive: -4.62% | –
Cc1ccc(NC2=C(NC(=O)c3ccccc3)C(=O)c3ccccc3C2=O)cc1Cl | – | active: 15.8 µM
OCCn1nc2c3ccccc3nc-2n(-c2ccccc2)c1=S | – | inconclusive: 44.7 µM [inhibitor, single point]
c1ccc2c(c1)[nH]c1nc3nncn3nc12 | – | inconclusive: 17.8 µM [inhibitor, partial curve]
CC(=O)c1ccc(NC(=O)Nc2ccc([N+](=O)[O-])cc2C)cc1 | – | inconclusive: 1.12 µM [inhibitor, full curve]
COc1cc(OC)c(NC(=O)c2cc(C(C)=O)n3ccccc23)cc1Cl | – | inconclusive: 1.78 µM [inhibitor, full curve, poor fit]
Cc1ccc(OCC(O)CNS(=O)(=O)c2ccccc2C(=O)O)cc1 (stereo not given) | – | inconclusive: 12.6 µM [inhibitor, partial curve]
Cc1ccc(C(=O)CSc2ccccn2)cc1 | inactive: -5.58% | –
CCOc1ccc(NC(=O)CN2C(=O)/C(=C3\SC(=S)N(C4CCS(=O)(=O)C4)C3=O)c3ccccc32)cc1 (stereo not given) | – | inconclusive: 6.31 µM [inhibitor, partial curve, poor fit]
CC(CCCC(C)(C)O)NC(=O)c1ccc(OC2CCN(C(=O)C3CC3)CC2)cc1 (stereo not given) | – | inconclusive: 15.8 µM [inhibitor, partial curve]
CN(C(=O)CSc1nncc2ccccc12)C1CCCCC1 | – | inconclusive: 22.4 µM [inhibitor, single point]
O=C(CSc1nnc(-c2ccc(O)cc2)n1Cc1ccco1)c1cccs1 | – | inconclusive: 31.6 µM [inhibitor, partial curve]
CCCCOc1ccc(C(=O)Nc2ccc(S(=O)(=O)Nc3nc(C)cc(C)n3)cc2)cc1 | – | inconclusive: 39.8 µM [inhibitor, single point]
COc1ccc(-n2cnc3c(sc4nc(N5CCOCC5)c5c(c43)CCCC5)c2=O)cc1 | – | inconclusive: 39.8 µM [inhibitor, single point]
Nn1c(SCC(=O)Nc2ccc(F)cc2)nnc1-c1cccnc1 | – | inconclusive: 11.2 µM [inhibitor, partial curve]
CCC(=O)N1CCc2cc(CNS(=O)(=O)c3c(C)cc(C)cc3C)ccc21 | – | inconclusive: 25.1 µM [inhibitor, partial curve]
Cc1cccc(N2CCN(C(=O)Cn3ccc4ccccc4c3=O)CC2)c1C | – | inconclusive: 8.91 µM [inhibitor, partial curve]
COc1ccccc1CC(=N)N1C[C@@H]2C(=O)CCC(c3ccccc3)(c3ccccc3)[C@@H]2C1 | – | inconclusive: 8.91 µM [inhibitor, partial curve, poor fit]
Cc1ccc(C)c(NC(=O)CN2C(=O)C3(SCC(=O)N3c3ccc(C)c(C)c3)c3ccccc32)c1 (stereo not given) | inactive: -6.19% | –
CCOC(=O)N1CCN(C(=O)CSc2ccccc2)CC1 | inactive: -15.2% | –
CC(C)(C)C1CCc2c(sc(NC(=O)c3ccco3)c2C(N)=O)C1 (stereo not given) | inactive: 0.152% | –

SMILES | activity, negative = inhibition | Potency
COc1cc(C2NC(=O)NC(O)(C(F)(F)F)C2C(=O)c2cccs2)ccc1O (stereo not given) | inactive: -7.56% | –
CCCc1nc2ccccc2c(=O)n1/N=C/c1ccc(O)cc1O | inactive: -9.34% | –
CCOc1ccc(C(=O)NCC2OCCc3ccccc32)cc1 (stereo not given) | – | inconclusive: 3.55 µM [inhibitor, partial curve]
O=C(CCC1N=C2c3ccccc3N=C(SCc3ccccc3Cl)N2C1=O)NCCc1ccccc1 (stereo not given) | – | inconclusive: 3.98 µM [inhibitor, single point]
Cc1ccc(C)n1NC(=O)c1ccccc1Cl | – | inconclusive: 17.8 µM [inhibitor, single point]
Cc1nc(Nc2ccc(Cl)c(Cl)c2)sc1C(=O)Nc1ccccc1 | – | inconclusive: 2.24 µM [inhibitor, partial curve]
COc1ccc2c(Sc3ccccc3)c(C(=O)NCC(C)c3ccccc3)[nH]c2c1 (stereo not given) | inactive: -2.56% | –
Cc1cc(C)nc(NS(=O)(=O)c2ccc(NC(=O)c3ccccc3O)cc2)n1 | inactive: -14.3% | –
COc1ccc(Br)cc1Cn1nnc(C(=O)Nc2ccc(C)cc2C)c1N | inactive: -0.755% | –
CCc1ccc2ncc(S(=O)(=O)c3ccc(Cl)cc3)c(N3CCN(CC)CC3)c2c1 | inactive: -8.18% | –
O=C(Nc1cccc2c1CCCC2)c1cc([N+](=O)[O-])ccc1Cl | – | inconclusive: 14.1 µM [inhibitor, partial curve]
O=C(CSc1nnnn1-c1ccc(O)cc1)N1N=C(c2ccc3ccccc3c2)CC1c1ccccc1 (stereo not given) | – | inconclusive: 3.98 µM [activator, full curve, poor fit]
Cc1nc2ccccc2n1CCc1nc2c3ccccc3nc(SCC(=O)Nc3cccc(C(F)(F)F)c3)n2n1 | – | inconclusive: 39.8 µM [inhibitor, single point]
CCC(C)n1c(-c2cccc(S(=O)(=O)N(CC)CC)c2)n[nH]c1=S (stereo not given) | inactive: -3.4% | –
O=C(CNc1ccccc1)N/N=C/c1cc([N+](=O)[O-])ccc1N1CCCC1 | – | inconclusive: 3.55 µM [inhibitor, full curve]
COc1ccccc1C(=O)NCCn1cc(SCC(=O)Nc2nnc(C)s2)c2ccccc21 | – | inconclusive: 31.6 µM [inhibitor, partial curve]
O=C(NC(=S)Nc1ccccc1N1CCCC1)c1cccs1 | – | inconclusive: 14.1 µM [inhibitor, partial curve, poor fit]
O=C(Cc1nc2ccccc2[nH]1)c1cccc([N+](=O)[O-])c1 | – | inconclusive: 22.4 µM [inhibitor, partial curve, poor fit]
CC(C)CN(C(=O)CN1CCN(c2ccccc2O)CC1)c1c(N)n(CC(C)C)c(=O)[nH]c1=O | inactive: -6.74% | –
N#C/C(=N/O)c1nc(-c2ccc(F)cc2)cs1 | – | inconclusive: 3.16 µM [inhibitor, partial curve]
Cc1c(NC(=O)CN2CCN(c3ccc([N+](=O)[O-])cc3)CC2)c(=O)n(-c2ccccc2)n1C | – | inconclusive: 20 µM [inhibitor, single point]
Cn1c(=O)oc2cc(S(=O)(=O)Nc3ccc4c(c3)OCO4)ccc21 | – | inconclusive: 5.62 µM [inhibitor, full curve]

SMILES | activity, negative = inhibition | Potency
COCCN(CCOC)c1nc(N)c2c(N)nc3c(c2c1C#N)CC(=O)N3Cc1ccc(Cl)cc1 | – | inconclusive: 14.1 µM [inhibitor, partial curve]
Cc1cccc(NC(=O)CSc2nnc(-c3ccco3)c(-c3ccco3)n2)c1 | – | active: 14.1 µM
CC1=C(C(=O)Nc2ccccn2)C(c2cccnc2)n2nnnc2N1 (stereo not given) | – | inconclusive: 0.891 µM [inhibitor, full curve]
CCN(CC)c1ccc(-n2c(C)c(C(C)=O)c(C(C)=O)c2C)cc1 | – | inconclusive: 25.1 µM [inhibitor, single point]
O=C(Nc1nonc1-c1ccc(Cl)cc1)c1ccccc1F | – | inconclusive: 5.01 µM [inhibitor, single point]
Cc1cccn2c(=O)c3cc(C#N)c(=NC(=O)c4ccco4)n(Cc4ccco4)c3nc12 | – | inconclusive: 17.8 µM [inhibitor, partial curve, poor fit]
CCNc1nnc(CSc2nc3ccccc3s2)s1 | – | inconclusive: 7.08 µM [inhibitor, partial curve]
CCOC(=O)c1scc(-c2ccccc2)c1S(=O)(=O)Nc1ccc(N(C)C)cc1 | – | inconclusive: 39.8 µM [inhibitor, single point]
O=C(Oc1ccc(=O)n(-c2ccccc2)n1)c1ccccc1 | – | inconclusive: 28.2 µM [inhibitor, single point]
CCS(=O)(=O)N1CC(=O)N(c2ccc(Cl)cc2C)C(C)(C(=O)NC2CCCCCC2)C1 (stereo not given) | inactive: 2.29% | –
O=C(CSc1nnnn1C1CCCC1)N1CCCc2ccccc21 | inactive: -6.87% | –
CCc1nnc(SCc2cccc(F)c2)c2cc3sc(C)cc3n12 | – | inconclusive: 11.2 µM [inhibitor, partial curve]
CCOc1ccc(N2CC(c3nc4ccccc4n3CCCOc3ccccc3OC)CC2=O)cc1 (stereo not given) | – | inconclusive: 31.6 µM [inhibitor, single point]
O=S(=O)(Nc1nc2ccccc2nc1Nc1ccc(N2CCOCC2)cc1)c1cc(Cl)ccc1Cl | – | inconclusive: 8.91 µM [inhibitor, partial curve]
COc1ccccc1OCCNc1nc2c(c(=O)n(C)c(=O)n2C)n1C | inactive: -6.8% | –
Cc1ccc(OCC(=O)Nc2ccc(-c3nc4ncccc4o3)cc2)c(C)c1 | – | inconclusive: 1.26 µM [inhibitor, full curve]
CN[C@H](CC(C)C)C(=O)N[C@H]1C(=O)N[C@@H](CC(N)=O)C(=O)N[C@H]2C(=O)N[C@H]3C(=O)N[C@H](C(=O)N[C@H](C(=O)O)c4cc(O)cc(O)c4-c4cc3ccc4O)[C@H](O)c3ccc(c(Cl)c3)Oc3cc2cc(c3O[C@@H]2O[C@H](CO)[C@@H](O)[C@H](O)[C@H]2O[C@H]2C[C@](C)(N)[C@H](O)[C@H](C)O2)Oc2ccc(cc2Cl)[C@H]1O | inactive: 2.53% | –
O=C(C1CCN(C2CC(=O)N(c3ccc(F)cc3)C2=O)CC1)N1CCOCC1 (stereo not given) | inactive: -14% | –
NC(=S)N=Nc1c(O)n(CCCl)c2ccc(Br)cc12 | – | inconclusive: 3.55 µM [inhibitor, partial curve, poor fit]
O=C1COc2ccc(C(=O)COC(=O)CCSc3ccccc3)cc2N1 | – | inconclusive: 17.8 µM [inhibitor, single point]
O=C(NCc1ccccc1Cl)C1CCN(S(=O)(=O)Cc2ccccc2)CC1 | inactive: 2.75% | –
